Data from patent publication US7423058B2, “Inhibitors of hepatitis C virus NS3 protease” (Schering Corporation, priority 2004, dated 2008).

Molecular target: Recombinant heterodimeric HCV NS3/NS4A protease (strain 1a) (Hepatitis C virus genotype 1a, UniProt P27958)
Experiment: Spectrophotometric assay for HCV protease inhibitory activity (chromogenic ester substrates)
Assay type: biochemical
Details: Table 3, Esters; read-out: Ki* Range

| SMILES | Ki |
| --- | --- |
| CC(C)(C)[C@H](NC(=O)N[C@H](C(=O)N1C[C@H]2[C@@H]([C@H]1C(=O)NC(CC1CCC1)C(=O)C(N)=O)C2(C)C)C1CCCCC1)C(=O)OCc1ccco1 (some centres unmarked) [compound 4300] | < 75 nM |
| CC(C)(C)[C@H](NC(=O)N[C@H](C(=O)N1C[C@H]2[C@@H]([C@H]1C(=O)NC(CC1CC1)C(=O)C(N)=O)C2(C)C)C(C)(C)C)C(=O)OCc1ccco1 (some centres unmarked) [compound 4301] | < 75 nM |
| CC(C)(C)OC(=O)[C@@H](NC(=O)N[C@H](C(=O)N1C[C@H]2[C@@H]([C@H]1C(=O)NC(CC1CC1)C(=O)C(N)=O)C2(C)C)C1(C)CCCC1)C(C)(C)C (some centres unmarked) [compound 4302] | < 75 nM |
| CC(C)[C@H](NC(=O)N[C@H](C(=O)N1C[C@H]2[C@@H]([C@H]1C(=O)NC(CC1CC1)C(=O)C(N)=O)C2(C)C)C(C)(C)C)C(=O)OC(C)(C)C (some centres unmarked) [compound 4303] | < 75 nM |
| CC(C)[C@H](NC(=O)N[C@H](C(=O)N1C[C@H]2[C@@H]([C@H]1C(=O)NC(CC1CC1)C(=O)C(N)=O)C2(C)C)C(C)(C)C)C(=O)OC(C1CC1)C1CC1 (some centres unmarked) [compound 4305] | < 75 nM |
| CC(C)(C)[C@H](NC(=O)N[C@H](C(=O)N1C[C@H]2[C@@H]([C@H]1C(=O)NC(CC1CC1)C(=O)C(N)=O)C2(C)C)C(C)(C)C)C(=O)OCC1CC1 (some centres unmarked) [compound 4306] | < 75 nM |
| CC(C)OC(=O)[C@@H](NC(=O)N[C@H](C(=O)N1C[C@H]2[C@@H]([C@H]1C(=O)NC(CC1CC1)C(=O)C(N)=O)C2(C)C)C(C)(C)C)C(C)(C)C (some centres unmarked) [compound 4307] | < 75 nM |
| CC(C)OC(=O)[C@@H](NC(=O)N[C@H](C(=O)N1C[C@H]2[C@@H]([C@H]1C(=O)NC(CC1CCC1)C(=O)C(N)=O)C2(C)C)C(C)(C)C)C1CCC1 (some centres unmarked) [compound 4308] | < 75 nM |
| CC(C)(C)OC(=O)[C@H](NC(=O)N[C@H](C(=O)N1C[C@H]2[C@@H]([C@H]1C(=O)NC(CC1CCC1)C(=O)C(N)=O)C2(C)C)C(C)(C)C)C(C)(C)C (some centres unmarked) [compound 4309] | < 75 nM |
| C=CCNC(=O)C(=O)C(CCC)NC(=O)[C@@H]1[C@@H]2[C@H](CN1C(=O)[C@@H](NC(=O)N[C@H](C(=O)OC(C1CC1)C1CC1)C(C)C)C(C)(C)C)C2(C)C (some centres unmarked) [compound 4310] | < 75 nM |
| CC(C)(C)[C@H](NC(=O)N[C@H](C(=O)N1C[C@H]2[C@@H]([C@H]1C(=O)NC(CC1CC1)C(=O)C(N)=O)C2(C)C)C(C)(C)C)C(=O)OC(C1CC1)C1CC1 (some centres unmarked) [compound 4311] | < 75 nM |
| CC(C)(C)OC(=O)[C@@H](NC(=O)N[C@H](C(=O)N1C[C@H]2[C@@H]([C@H]1C(=O)NC(CC1CCC1)C(=O)C(N)=O)C2(C)C)C1(C)CCCC1)C(C)(C)C (some centres unmarked) [compound 4312] | < 75 nM |
| CC(C)(C)OC(=O)[C@H](NC(=O)N[C@H](C(=O)N1C[C@H]2[C@@H]([C@H]1C(=O)NC(CC1CCC1)C(=O)C(N)=O)C2(C)C)C1CCCCC1)C(C)(C)C (some centres unmarked) [compound 4313] | < 75 nM |
| CC(C)(C)[C@H](NC(=O)N[C@H](C(=O)OCc1ccccc1)C1CCCC1)C(=O)N1C[C@H]2[C@@H]([C@H]1C(=O)NC(CC1CC1)C(=O)C(N)=O)C2(C)C (some centres unmarked) [compound 4314] | < 75 nM |
| CC(C)[C@H](NC(=O)N[C@H](C(=O)N1C[C@H]2[C@@H]([C@H]1C(=O)NC(CC1CC1)C(=O)C(N)=O)C2(C)C)C(C)(C)C)C(=O)O[C@H](C)c1ccccc1 (some centres unmarked) [compound 4315] | < 75 nM |
| CC(C)[C@H](NC(=O)N[C@H](C(=O)N1C[C@H]2[C@@H]([C@H]1C(=O)NC(CC1CC1)C(=O)C(N)=O)C2(C)C)C(C)(C)C)C(=O)OC(C)(C)C1CC1 (some centres unmarked) [compound 4316] | < 75 nM |
| CC(C)(C)OC(=O)[C@@H](NC(=O)N[C@H](C(=O)N1C[C@H]2[C@@H]([C@H]1C(=O)NC(CC1CCC1)C(=O)C(N)=O)C2(C)C)C(C)(C)C)C1CCCC1 (some centres unmarked) [compound 4317] | < 75 nM |
| CC(C)(C)[C@H](NC(=O)N[C@H](C(=O)OCc1ccccc1)C1CCCCC1)C(=O)N1C[C@H]2[C@@H]([C@H]1C(=O)NC(CC1CC1)C(=O)C(N)=O)C2(C)C (some centres unmarked) [compound 4318] | < 75 nM |
| CC(C)[C@H](NC(=O)N[C@H](C(=O)N1C[C@H]2[C@@H]([C@H]1C(=O)NC(CC1CC1)C(=O)C(N)=O)C2(C)C)C(C)(C)C)C(=O)OCc1ccco1 (some centres unmarked) [compound 4319] | < 75 nM |
| CC(C)(C)[C@H](NC(=O)N[C@H](C(=O)N1C[C@H]2[C@@H]([C@H]1C(=O)NC(CC1CCC1)C(=O)C(N)=O)C2(C)C)C(C)(C)C)C(=O)OCc1ccco1 (some centres unmarked) [compound 4320] | < 75 nM |
| CC(C)(C)[C@H](NC(=O)N[C@H](C(=O)OCc1ccccc1)C1CC1)C(=O)N1C[C@H]2[C@@H]([C@H]1C(=O)NC(CC1CC1)C(=O)C(N)=O)C2(C)C (some centres unmarked) [compound 4321] | < 75 nM |
| CC(C)[C@H](NC(=O)N[C@H](C(=O)N1C[C@H]2[C@@H]([C@H]1C(=O)NC(CC1CCC1)C(=O)C(N)=O)C2(C)C)C(C)(C)C)C(=O)OCc1ccco1 (some centres unmarked) [compound 4322] | < 75 nM |
| CC(C)(C)[C@H](NC(=O)N[C@H](C(=O)OCC1CC1)C1CCC1)C(=O)N1C[C@H]2[C@@H]([C@H]1C(=O)NC(CC1CC1)C(=O)C(N)=O)C2(C)C (some centres unmarked) [compound 4323] | < 75 nM |
| CC(C)(C)OC(=O)[C@H](NC(=O)N[C@H](C(=O)N1C[C@H]2[C@@H]([C@H]1C(=O)NC(CC1CC1)C(=O)C(N)=O)C2(C)C)C1CCCCC1)C(C)(C)C (some centres unmarked) [compound 4325] | < 75 nM |

| SMILES | Ki |
| --- | --- |
| CC(C)(C)OC(=O)[C@@H](NC(=O)N[C@H](C(=O)N1C[C@H]2[C@@H]([C@H]1C(=O)NC(CC1CC1)C(=O)C(N)=O)C2(C)C)C1CCCCC1)C1CCCC1 (some centres unmarked) [compound 4326] | < 75 nM |
| CC(C)OC(=O)[C@@H](NC(=O)N[C@H](C(=O)N1C[C@H]2[C@@H]([C@H]1C(=O)NC(CC1CC1)C(=O)C(N)=O)C2(C)C)C(C)(C)C)C(C)C (some centres unmarked) [compound 4327] | < 75 nM |
| CC(C)OC(=O)[C@@H](NC(=O)N[C@H](C(=O)N1C[C@H]2[C@@H]([C@H]1C(=O)NC(CC1CC1)C(=O)C(N)=O)C2(C)C)C(C)(C)C)C1CCC1 (some centres unmarked) [compound 4329] | < 75 nM |
| CC(C)(C)[C@H](NC(=O)N[C@H](C(=O)N1C[C@H]2[C@@H]([C@H]1C(=O)NC(CCC(F)(F)F)C(=O)C(N)=O)C2(C)C)C(C)(C)C)C(=O)OCC1CC1 (some centres unmarked) [compound 4330] | < 75 nM |
| CC(C)[C@H](NC(=O)N[C@H](C(=O)N1C[C@H]2[C@@H]([C@H]1C(=O)NC(CC1CC1)C(=O)C(N)=O)C2(C)C)C(C)(C)C)C(=O)OC(C)(C)C(F)(F)F (some centres unmarked) [compound 4331] | < 75 nM |
| CC(C)[C@H](NC(=O)N[C@H](C(=O)N1C[C@H]2[C@@H]([C@H]1C(=O)NC(CC1CCC1)C(=O)C(N)=O)C2(C)C)C(C)(C)C)C(=O)OCC1CC1 (some centres unmarked) [compound 4332] | < 75 nM |
| CC(C)(C)[C@H](NC(=O)N[C@H](C(=O)OCC1CC1)C1CCCC1)C(=O)N1C[C@H]2[C@@H]([C@H]1C(=O)NC(CC1CC1)C(=O)C(N)=O)C2(C)C (some centres unmarked) [compound 4333] | < 75 nM |
| CC(C)(C)[C@H](NC(=O)N[C@H](C(=O)N1C[C@H]2[C@@H]([C@H]1C(=O)NC(CC1CCC1)C(=O)C(N)=O)C2(C)C)C(C)(C)C)C(=O)OCc1ccccc1 (some centres unmarked) [compound 4334] | < 75 nM |
| CC(C)(C)OC(=O)[C@@H](NC(=O)N[C@H](C(=O)N1C[C@H]2[C@@H]([C@H]1C(=O)NC(CC1CC1)C(=O)C(N)=O)C2(Cl)Cl)C(C)(C)C)C(C)(C)C (some centres unmarked) [compound 4335] | < 75 nM |
| CC(C)OC(=O)[C@H](NC(=O)N[C@H](C(=O)N1C[C@H]2[C@@H]([C@H]1C(=O)NC(CC1CCC1)C(=O)C(N)=O)C2(C)C)C(C)(C)C)C(C)(C)C (some centres unmarked) [compound 4336] | < 75 nM |
| CC(C)[C@H](NC(=O)N[C@H](C(=O)N1C[C@H]2[C@@H]([C@H]1C(=O)NC(CC1CC1)C(=O)C(N)=O)C2(C)C)C(C)(C)C)C(=O)OCc1ccccc1 (some centres unmarked) [compound 4337] | < 75 nM |
| C[C@H](OC(=O)[C@@H](NC(=O)N[C@H](C(=O)N1C[C@H]2[C@@H]([C@H]1C(=O)NC(CC1CC1)C(=O)C(N)=O)C2(C)C)C(C)(C)C)C(C)(C)C)c1ccccc1 (some centres unmarked) [compound 4338] | < 75 nM |
| CC(C)(C)OC(=O)C(CC(F)(F)F)NC(=O)N[C@H](C(=O)N1C[C@H]2[C@@H]([C@H]1C(=O)NC(CC1CC1)C(=O)C(N)=O)C2(C)C)C(C)(C)C (some centres unmarked) [compound 4339] | < 75 nM |
| CC(OC(=O)[C@@H](NC(=O)N[C@H](C(=O)N1C[C@H]2[C@@H]([C@H]1C(=O)NC(CC1CC1)C(=O)C(N)=O)C2(C)C)C(C)(C)C)C(C)C)C1CC1 (some centres unmarked) [compound 4340] | < 75 nM |
| C=CC(OC(=O)C1(NC(=O)N[C@H](C(=O)N2C[C@H]3[C@@H]([C@H]2C(=O)NC(CC2CC2)C(=O)C(N)=O)C3(C)C)C(C)(C)C)CCCCC1)c1ccccc1 (some centres unmarked) [compound 4341] | < 75 nM |
| CCCC(NC(=O)[C@@H]1[C@@H]2[C@H](CN1C(=O)[C@@H](NC(=O)N[C@H](C(=O)OC(C1CC1)C1CC1)C(C)C)C(C)(C)C)C2(C)C)C(=O)C(N)=O (some centres unmarked) [compound 4342] | < 75 nM |
| C=CCOC(=O)[C@@H](NC(=O)N[C@H](C(=O)N1C[C@H]2[C@@H]([C@H]1C(=O)NC(CC1CC1)C(=O)C(N)=O)C2(C)C)C(C)(C)C)C(C)(C)C (some centres unmarked) [compound 4343] | < 75 nM |
| CC(C)(C)OC(=O)[C@H](NC(=O)N[C@H](C(=O)N1C[C@H]2[C@@H]([C@H]1C(=O)NC(CC1CCC1)C(=O)C(N)=O)C2(C)C)C(C)(C)C)C1CCCCC1 (some centres unmarked) [compound 4344] | < 75 nM |
| CC(C)(C)OC(=O)[C@@H](NC(=O)N[C@H](C(=O)N1C[C@H]2[C@@H]([C@H]1C(=O)NC(CC1CC1)C(=O)C(N)=O)C2(Cl)Cl)C1Cc2ccccc2C1)C(C)(C)C (some centres unmarked) [compound 4345] | < 75 nM |
| CC(C)(C)[C@H](NC(=O)N[C@H](C(=O)OCC1CC1)C1CC1)C(=O)N1C[C@H]2[C@@H]([C@H]1C(=O)NC(CC1CC1)C(=O)C(N)=O)C2(C)C (some centres unmarked) [compound 4346] | < 75 nM |
| COc1ccc(COC(=O)[C@@H](NC(=O)N[C@H](C(=O)N2C[C@H]3[C@@H]([C@H]2C(=O)NC(CC2CC2)C(=O)C(N)=O)C3(C)C)C(C)(C)C)C(C)C)cc1 (some centres unmarked) [compound 4347] | < 75 nM |
| COc1ccc(COC(=O)[C@@H](NC(=O)N[C@H](C(=O)N2C[C@H]3[C@@H]([C@H]2C(=O)NC(CC2CC2)C(=O)C(N)=O)C3(C)C)C(C)(C)C)C(C)(C)C)cc1 (some centres unmarked) [compound 4348] | < 75 nM |
| CC(C)(C)[C@H](NC(=O)N[C@H](C(=O)OCC1CC1)C1(C(F)(F)F)CC1)C(=O)N1C[C@H]2[C@@H]([C@H]1C(=O)NC(CC1CC1)C(=O)C(N)=O)C2(C)C (some centres unmarked) [compound 4349] | < 75 nM |
